# Assay results reported in the supplement of paper PMC8728848.
# Some of the results follow.
# B1: LICBM33A (Lactococcus lactis), Q9CE94 (protein)
# chain: MKKLLTGLLVAAGLLSVSLLIKTDTVSAHGYVQSPPARGYQGQLDSQSLGWTAAFNIYGNVISNPQSLEAPKGFPECGPADGRIASANGGLGQIGDFVLDNQTSSRWKKTSISTGSNIFTWKYTAPHKTTKWHYYMTKTGWDQNAPLKHSELELIGTINHDGSPATNNLSHTINIPTDRSGYHIVLAVWDVADTSNAFYNVIDINVNNKNASSQVFGPFL
# Experiments:
# Experiment in all cases: glycan array binding signal (z-score within array); higher = stronger binding
# Conditions in all cases: glycan notation: IUPAC condensed, linker removed
# [1] = target: Gal(b1-3)GlcNAc(b1-2)Man(a1-3)[Gal(b1-3)GlcNAc(b1-2)Man(a1-6)]Man(b1-4)GlcNAc(b1-4)GlcNAc
# In short: (§1)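 The binding signal is a Z-score computed within each array and averaged over linkers. Arrays of the same protein sequence at different concentrations or buffers were also averaged together. Data originate from 3228 arrays in the Consortium for Functional Glycomics database, kept only where the protein sequence was available.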
# [2] = target: Gal(b1-3)GlcNAc(b1-2)Man(a1-3)[Gal(b1-3)GlcNAc(b1-2)Man(a1-6)]Man(b1-4)GlcNAc(b1-4)[Fuc(a1-6)]GlcNAc
# In short: as §1
# [3] = target: Gal(b1-3)GlcNAc(b1-2)Man(a1-3)[GlcNAc(b1-4)][Gal(b1-3)GlcNAc(b1-2)Man(a1-6)]Man(b1-4)GlcNAc(b1-4)GlcNAc
# In short: as §1
# [4] = target: Gal(b1-3)GlcNAc(b1-2)[Gal(b1-3)GlcNAc(b1-6)]Man(a1-6)[Gal(b1-3)GlcNAc(b1-2)Man(a1-3)]Man(b1-4)GlcNAc(b1-4)GlcNAc
# In short: as §1
# [5] = target: Gal(b1-3)GlcNAc(b1-3)Gal(b1-3)GlcNAc
# In short: as §1
# [6] = target: Gal(b1-3)GlcNAc(b1-3)Gal(b1-4)Glc
# In short: as §1
# [7] = target: Gal(b1-3)GlcNAc(b1-3)Gal(b1-4)GlcNAc
# In short: as §1
# [8] = target: Gal(b1-3)GlcNAc(b1-3)Gal(b1-4)GlcNAc(b1-2)Man(a1-3)[Gal(b1-3)GlcNAc(b1-3)Gal(b1-4)GlcNAc(b1-2)Man(a1-6)]Man(b1-4)GlcNAc(b1-4)GlcNAc
# In short: as §1
# [9] = target: Gal(b1-3)GlcNAc(b1-3)Gal(b1-4)GlcNAc(b1-2)[Gal(b1-3)GlcNAc(b1-3)Gal(b1-4)GlcNAc(b1-6)]Man(a1-6)[Gal(b1-3)GlcNAc(b1-3)Gal(b1-4)GlcNAc(b1-2)Man(a1-3)]Man(b1-4)GlcNAc(b1-4)[Fuc(a1-6)]GlcNAc
# In short: as §1
# [10] = target: Gal(b1-3)GlcNAc(b1-3)Gal(b1-4)GlcNAc(b1-3)Gal(b1-4)GlcNAc(b1-2)[Gal(b1-3)GlcNAc(b1-3)Gal(b1-4)GlcNAc(b1-3)Gal(b1-4)GlcNAc(b1-6)]Man(a1-6)[Gal(b1-3)GlcNAc(b1-3)Gal(b1-4)GlcNAc(b1-3)Gal(b1-4)GlcNAc(b1-2)Man(a1-3)]Man(b1-4)GlcNAc(b1-4)[Fuc(a1-6)]GlcNAc
# In short: as §1
# [11] = target: Gal(b1-3)GlcNAc(b1-3)Gal(b1-4)GlcNAc(b1-6)[Gal(b1-3)GlcNAc(b1-3)]Gal(b1-4)Glc
# In short: as §1
# [12] = target: Gal(b1-3)GlcNAc(b1-3)Gal(b1-4)[Fuc(a1-3)]GlcNAc
# In short: as §1
# [13] = target: Gal(b1-3)GlcNAc(b1-3)Gal(b1-4)[Fuc(a1-3)]GlcNAc(b1-6)[Gal(b1-3)GlcNAc(b1-3)]Gal(b1-4)Glc
# In short: as §1
# [14] = target: Gal(b1-3)GlcNAc(b1-3)GalNAc
# In short: as §1
# [15] = target: Gal(b1-3)GlcNAc(b1-6)Gal(b1-4)GlcNAc
# In short: as §1
# [16] = target: Gal(b1-3)GlcNAc(b1-6)GalNAc
# In short: as §1
# [17] = target: Gal(b1-3)GlcNAc(b1-6)[Gal(b1-3)]GalNAc
# In short: as §1
# Gal(b1-3)GlcNAc6S = target: Gal(b1-3)GlcNAc6S
# In short: as §1
# [18] = target: Gal(b1-3)[Fuc(a1-4)]GlcNAc
# In short: as §1
# [19] = target: Gal(b1-3)[Fuc(a1-4)]GlcNAc(b1-2)Man
# In short: as §1
# [20] = target: Gal(b1-3)[Fuc(a1-4)]GlcNAc(b1-2)Man(a1-3)[Gal(b1-3)[Fuc(a1-4)]GlcNAc(b1-2)Man(a1-6)]Man(b1-4)GlcNAc(b1-4)[Fuc(a1-6)]GlcNAc
# In short: as §1
# [21] = target: Gal(b1-3)[Fuc(a1-4)]GlcNAc(b1-3)Gal(b1-3)[Fuc(a1-4)]GlcNAc
# In short: as §1
# [22] = target: Gal(b1-3)[Fuc(a1-4)]GlcNAc(b1-3)Gal(b1-4)[Fuc(a1-3)]GlcNAc
# In short: as §1
# [23] = target: Gal(b1-3)[Fuc(a1-4)]GlcNAc(b1-6)GalNAc
# In short: as §1
# [24] = target: Gal(b1-3)[GlcNAc(b1-6)]GalNAc
# In short: as §1
# [25] = target: Gal(b1-3)[Neu5Ac(a2-6)]GalNAc
# In short: as §1
# [26] = target: Gal(b1-3)[Neu5Ac(a2-6)]GlcNAc(b1-4)Gal(b1-4)Glc
# In short: as §1
# [27] = target: Gal(b1-3)[Neu5Ac(b2-6)]GalNAc
# In short: as §1
# Gal(b1-4)Gal = target: Gal(b1-4)Gal
# In short: as §1
# [28] = target: Gal(b1-4)GalNAc(a1-3)[Fuc(a1-2)]Gal(b1-4)GlcNAc
# In short: as §1
# [29] = target: Gal(b1-4)GalNAc(b1-3)[Fuc(a1-2)]Gal(b1-4)GlcNAc
# In short: as §1
# Gal(b1-4)Glc = target: Gal(b1-4)Glc
# In short: as §1
# Gal(b1-4)Glc6S = target: Gal(b1-4)Glc6S
# In short: as §1
# Gal(b1-4)GlcNAc = target: Gal(b1-4)GlcNAc
# In short: as §1
# [30] = target: Gal(b1-4)GlcNAc(a1-6)Gal(b1-4)GlcNAc
# In short: as §1
# Gal(b1-4)GlcNAc(b1-2)Man = target: Gal(b1-4)GlcNAc(b1-2)Man
# In short: as §1
# [31] = target: Gal(b1-4)GlcNAc(b1-2)Man(a1-3)Man(b1-4)GlcNAc(b1-4)GlcNAc
# In short: as §1
# [32] = target: Gal(b1-4)GlcNAc(b1-2)Man(a1-3)[Gal(b1-4)GlcNAc(b1-2)Man(a1-6)]Man(b1-4)GlcNAc(b1-4)GlcNAc
# In short: as §1
# [33] = target: Gal(b1-4)GlcNAc(b1-2)Man(a1-3)[Gal(b1-4)GlcNAc(b1-2)Man(a1-6)]Man(b1-4)GlcNAc(b1-4)[Fuc(a1-6)]GlcNAc
# In short: as §1
# [34] = target: Gal(b1-4)GlcNAc(b1-2)Man(a1-3)[Gal(b1-4)GlcNAc(b1-2)Man(a1-6)][Gal(b1-4)GlcNAc(b1-4)]Man(b1-4)GlcNAc(b1-4)[Fuc(a1-6)]GlcNAc
# In short: as §1
# [35] = target: Gal(b1-4)GlcNAc(b1-2)Man(a1-3)[Gal(b1-4)GlcNAc(b1-2)Man(a1-6)][GlcNAc(b1-4)]Man(b1-4)GlcNAc(b1-4)[Fuc(a1-6)]GlcNAc
# In short: as §1
# [36] = target: Gal(b1-4)GlcNAc(b1-2)Man(a1-3)[GlcNAc(b1-2)Man(a1-6)]Man(b1-4)GlcNAc(b1-4)GlcNAc
# In short: as §1
# [37] = target: Gal(b1-4)GlcNAc(b1-2)Man(a1-3)[GlcNAc(b1-4)][Gal(b1-4)GlcNAc(b1-2)Man(a1-6)]Man(b1-4)GlcNAc(b1-4)GlcNAc
# In short: as §1
# [38] = target: Gal(b1-4)GlcNAc(b1-2)Man(a1-3)[Man(a1-6)]Man(b1-4)GlcNAc(b1-4)GlcNAc
# In short: as §1
# [39] = target: Gal(b1-4)GlcNAc(b1-2)Man(a1-6)Man(b1-4)GlcNAc(b1-4)GlcNAc
# In short: as §1
binder,measurement,setting,value
B1,glycan array binding signal (z-score),[1],-0.123
same,glycan array binding signal (z-score),[2],1.73
same,glycan array binding signal (z-score),[3],-0.473
same,glycan array binding signal (z-score),[4],-0.42
same,glycan array binding signal (z-score),[5],-1.08
same,glycan array binding signal (z-score),[6],-0.491
same,glycan array binding signal (z-score),[7],-0.31
same,glycan array binding signal (z-score),[8],-0.015
same,glycan array binding signal (z-score),[9],-0.285
same,glycan array binding signal (z-score),[10],0.089
same,glycan array binding signal (z-score),[11],-0.307
same,glycan array binding signal (z-score),[12],-0.324
same,glycan array binding signal (z-score),[13],-1.9
same,glycan array binding signal (z-score),[14],-0.488
same,glycan array binding signal (z-score),[15],-0.381
same,glycan array binding signal (z-score),[16],-0.556
same,glycan array binding signal (z-score),[17],-0.694
same,glycan array binding signal (z-score),Gal(b1-3)GlcNAc6S,-0.684
same,glycan array binding signal (z-score),[18],0.056
same,glycan array binding signal (z-score),[19],-0.183
same,glycan array binding signal (z-score),[20],-0.751
same,glycan array binding signal (z-score),[21],-0.413
same,glycan array binding signal (z-score),[22],0.285
same,glycan array binding signal (z-score),[23],-0.505
same,glycan array binding signal (z-score),[24],-0.794
same,glycan array binding signal (z-score),[25],-0.369
same,glycan array binding signal (z-score),[26],-0.368
same,glycan array binding signal (z-score),[27],-0.55
same,glycan array binding signal (z-score),Gal(b1-4)Gal,-0.162
same,glycan array binding signal (z-score),[28],0.251
same,glycan array binding signal (z-score),[29],-0.44
same,glycan array binding signal (z-score),Gal(b1-4)Glc,-0.3
same,glycan array binding signal (z-score),Gal(b1-4)Glc6S,-0.084
same,glycan array binding signal (z-score),Gal(b1-4)GlcNAc,0.152
same,glycan array binding signal (z-score),[30],0.602
same,glycan array binding signal (z-score),Gal(b1-4)GlcNAc(b1-2)Man,-1.02
same,glycan array binding signal (z-score),[31],-0.702
same,glycan array binding signal (z-score),[32],0.408
same,glycan array binding signal (z-score),[33],0.253
same,glycan array binding signal (z-score),[34],-0.48
same,glycan array binding signal (z-score),[35],-0.52
same,glycan array binding signal (z-score),[36],-0.11
same,glycan array binding signal (z-score),[37],-0.302
same,glycan array binding signal (z-score),[38],-0.163
same,glycan array binding signal (z-score),[39],2.27
